In the supplement of paper PMC12217912:
This is one part of the list. The full chains were built here from the parent and the listed change. Inactive controls read about 0.05.

B1: TEV protease; numbered along this chain (parent)
chain: MGESLFKGPRDYNPISSSICHLTNESDGHTTSLYGIGFGPFIITNKHLFRRNNGTLVVQSLHGVFKVKDTTTLQQHLVDGRDMIIIRMPKDFPPFPQKLKFREPQREERICLVTTNFQTKSMSSMVSDTSCTFPSGDGIFWKHWIQTKDGQCGSPLVSTRDGFIVGIHSASNFTNTNNYFTSVPKNFMELLTNQEAQQWVSGWRLNADSVLWGGHKVFMVKPEEPFQPVKEATQL

Variants of: B1
Test: raw area under fraction-flipped curve 0-4 h after induction (AUC4h, not background-subtracted), DNA-recorder readout of cleavage of the substrate (dimensionless); higher = more cleavage of the substrate by the protease variant
Details: temperature: 34 °C; time window: 0-4 h after rhamnose induction
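Further: Bxb1 expression induced with 0.2% (w/v) L-rhamnose at OD600 near 0.5, cultures sampled hourly, flipped fraction per protease–substrate barcode pair counted by paired-end Illumina sequencing.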

Variant	area with substrate ENLYFQD	area with substrate ENLYFQE	area with substrate ENLYFQF	area with substrate ENLYFQH	area with substrate ENLYFQL	area with substrate ENLYFQP	area with substrate ENLYFQQ	area with substrate ENLYFQR	area with substrate ENLYFQS	area with substrate ENLYFQW	area with substrate ENLYFQC	area with substrate ENLYFQG	area with substrate ENLYFQM	area with substrate ENLYFQN	area with substrate ENLYFQV	area with substrate ENLYFQY	area with substrate ENLYFQI	area with substrate ENLYFQK	area with substrate ENLYFQT
R50S	0.0398	0.0759	0.0861	0.0899	0.0599	0.05	0.0669	0.061	0.116	0.0657	–	–	–	–	–	–	–	–	–
L235V	0.062	–	–	–	–	–	–	0.0585	0.0953	–	0.127	0.0875	0.0484	0.0938	0.0811	0.0856	–	–	–
F173V	0.0784	0.0536	–	0.074	0.0494	0.0594	0.0624	0.0481	0.105	0.0695	0.112	–	0.0672	0.0779	–	–	0.0547	0.0589	–
K185D	0.0686	–	0.0945	–	–	–	–	0.0639	0.108	0.0581	–	–	0.0901	–	–	–	–	–	–
K185Y	0.0735	–	–	0.0914	0.0537	0.0632	0.0741	0.056	0.107	0.0701	0.126	0.104	0.108	0.0796	0.0915	–	–	0.0441	0.0775
R51T	0.0723	–	–	–	–	–	–	0.0577	0.134	0.0815	–	0.138	0.118	–	–	0.0756	–	0.0584	0.0606
S154E	–	0.0444	–	–	–	–	–	0.0497	0.0804	0.05	0.0883	–	0.0654	0.0537	–	–	–	–	–
F218Q	0.0505	–	–	0.0756	0.0666	0.0597	0.0642	0.0604	0.0929	–	0.0966	0.089	0.0629	0.0657	0.0725	0.046	–	0.0642	0.062
F218E	–	0.0646	0.0503	0.0502	0.0613	–	0.0607	0.0553	0.0923	0.0539	0.124	0.0826	0.0727	0.0625	0.0405	–	0.0628	0.049	–
F218C	–	–	0.0449	–	0.0582	–	0.0716	–	0.103	–	0.114	0.0986	0.051	0.073	0.0586	–	–	0.059	–
V157H	0.0666	0.0576	0.0381	–	0.0456	0.062	–	0.0513	0.0554	0.0417	0.0505	–	0.0754	0.0407	0.0383	0.0544	0.0533	0.0435	0.0469
V157T	0.061	–	–	–	0.0477	–	–	0.0487	0.0912	0.0637	–	0.117	–	–	–	–	–	0.0688	–
G138I	0.0712	–	–	–	–	–	–	–	0.0875	–	–	–	0.114	–	–	–	–	–	0.0512
K216Y	–	–	0.0555	0.07	–	0.0599	–	0.0364	0.0801	–	0.0913	–	0.0707	–	0.0503	0.0686	–	0.0533	0.0519
H62G	0.0658	–	–	–	0.06	0.121	–	0.0585	0.101	0.0709	–	0.0808	0.0966	0.0773	–	–	0.0474	0.0603	–
P89K	0.0957	–	–	–	–	0.0606	0.064	0.0523	0.0772	0.083	–	0.0683	0.0532	0.0735	0.054	–	–	0.0582	0.0616
L191N	0.0467	0.0455	–	0.0533	0.0686	–	0.0512	0.0465	0.0589	0.0461	0.0672	0.0597	0.0289	0.0585	0.0483	0.056	0.0418	0.0461	0.0529

Variant	area with substrate ENLYFQD	area with substrate ENLYFQE	area with substrate ENLYFQF	area with substrate ENLYFQH	area with substrate ENLYFQL	area with substrate ENLYFQP	area with substrate ENLYFQQ	area with substrate ENLYFQR	area with substrate ENLYFQS	area with substrate ENLYFQW	area with substrate ENLYFQC	area with substrate ENLYFQG	area with substrate ENLYFQM	area with substrate ENLYFQN	area with substrate ENLYFQV	area with substrate ENLYFQY	area with substrate ENLYFQI	area with substrate ENLYFQK	area with substrate ENLYFQT
L190I	–	–	0.09	–	–	0.0654	–	0.0442	0.112	–	0.122	–	0.0745	–	0.0574	–	–	–	0.0673
F180Y	–	0.103	–	0.0909	–	–	–	0.0381	0.0994	–	0.144	0.109	0.107	0.0699	–	0.0818	–	0.0754	0.069
F180T	0.0673	–	–	–	0.0383	–	–	0.072	0.0557	–	–	0.0414	0.0408	0.0572	0.0589	–	0.0537	0.0594	–
Y179P	0.0546	0.0608	–	0.065	–	–	0.0512	–	0.0552	0.0514	0.045	0.0606	0.0551	0.0454	–	0.0607	–	0.0582	0.0564
V165Q	0.0471	–	–	–	0.0412	–	–	0.0506	0.0535	0.0531	0.0494	–	0.047	0.058	–	0.0466	–	0.0353	–
G213P	0.0658	–	0.0486	–	–	0.0571	–	–	0.058	–	0.0272	–	–	–	–	–	–	–	–
R106C	0.0711	–	–	–	0.0579	–	–	0.0623	0.0979	–	–	0.0969	0.0853	–	–	0.0858	0.0428	0.0546	0.0666
T181D	–	–	–	–	–	–	–	0.0792	0.0554	–	0.0048	0.0564	–	–	–	–	–	0.0669	0.0494
T181Q	–	0.058	–	–	–	0.0639	–	0.0519	0.0675	–	0.0624	–	–	–	–	–	–	–	–
I85Q	0.0501	–	–	–	0.0534	0.0364	–	0.0451	0.056	–	–	–	–	0.0482	–	–	–	0.052	0.0436
Q197H	0.0674	–	0.0672	–	0.0487	–	–	0.0597	0.0941	–	0.116	–	0.0769	0.0734	–	–	–	0.0869	–
Q197L	0.0803	–	–	–	0.0534	–	0.0848	0.0617	0.105	–	0.125	0.108	0.0894	0.0984	–	–	–	0.0691	0.0825
S182D	–	–	–	–	0.0571	–	–	–	0.0759	–	0.0809	0.0755	–	0.0642	–	–	–	–	–
W199K	–	–	–	–	0.06	–	–	0.0561	0.072	–	0.0676	–	–	–	–	0.0752	0.0642	–	–
M188V	–	–	–	–	0.0609	0.0565	–	0.0574	0.103	–	0.0886	0.109	0.093	–	0.0766	–	0.0573	–	0.0487
N172D	0.0736	–	–	0.0512	0.0505	0.0495	0.0584	0.0587	0.0857	–	0.0943	0.0789	0.0612	–	0.0578	0.0756	–	–	–
A170N	–	–	–	0.0647	–	–	–	–	0.059	0.05	0.0702	–	–	–	0.0322	–	–	–	0.065
